The record followed here is the antibiotic and cytotoxicity screens of Wong et al. (2023).

Some of the results follow.

For test [1], the system named is HSkMC (human skeletal muscle cells). In words: cytotoxicity call (relative viability < 0.9). Particulars: 10 µM.
In test [2] the test system is S. aureus RN4220. In words: growth inhibition call (relative growth <= 0.2). As to conditions: 50 µM.

Consider `COc1ccc(NC(=O)N(C)C[C@H]2Oc3ccc(NC(=O)Nc4ccc(C(F)(F)F)cc4)cc3CC(=O)N([C@@H](C)CO)C[C@@H]2C)cc1`, for which, in test [1], the cytotoxicity call was “inactive”. Moreover, in test [2], the growth inhibition call was “inactive”.

For `C[C@@H]1CN([C@@H](C)CO)S(=O)(=O)c2ccc(C#CCC3CCCC3)cc2O[C@H]1CN(C)C(=O)c1cnccn1`, the cytotoxicity call in test [1] is “inactive”. Also, the growth inhibition call in test [2] was “inactive”.

Consider `C[C@@H]1CN([C@@H](C)CO)C(=O)Cc2cc(NC(=O)NC3CCCCC3)ccc2O[C@H]1CN(C)Cc1ccc(-c2ccccc2)cc1`, for which the cytotoxicity call in test [1] is “inactive”. For the same compound, the growth inhibition call in test [2] is “inactive”.
